Test results reported in patent US10745715B2, “Method and means for purifying retroviral vectors” (UCL BUSINESS PLC, priority 2014, dated 2020).

System: K562 cells
Experiment: Sorting of K562 cells expressing Flankedccstreptag formats with streptavidin beads
Type: cell-based
Protocol: Transduced K562 were close to 100% positive for the transgenes after transduction. Positive cells were mixed with non-transduced (NT) K562 pre-sorting. The mixture was incubated with both streptavidin dynabeads (Life technologies, Cat. No. 65601) and streptavidin-microbeads (Miltenyi, Cat. No. 130-048-101) as per manufacturer protocol. The sorted cellular fraction was collected as well as flow-through fraction for both protocols. Sorting was assessed by streptavidin-APC staining and for eGFP positive cell populations 9 days post sorting by flow cytometry.
To establish that the two versions of Flankedccstreptag are able to purify lentivirus from cellular supernatant, an initial experiment was carried out involving sorting of K562 cells expressing these tags on their surface using streptavidin beads. We reasoned that if the tags could attach to a streptavidin matrix while expressed on cells with sufficient stability to allow sorting of expressing cells, they should be suitable for lentiviral capture too.
K562 cells were retrovirally transduced to express the two tags and transduction efficiencies were determined by eGFP expression using flow cytometry (FIG. 4 Transduced K562 plot). Subsequently, transduced cells were mixed with non-transduced K562 to assess the efficiency of sorting using two streptavidin-beads sourced from Life technologies (Dynabeads) and Miltenyi (Microbeads). Sorting was performed as per manufacturer protocol. Sorted cell fractions were collected for both sorting for each epitope tag as well as their respective flow-through. […] Sorting with streptavidin microbeads from Miltenyi was successful.

B1: flankedccstreptag-L8: Flankedccstreptag on CD8 stalk, transmembrane and short endodomain (protein)
chain: MGTSLLCWMALCLLGADHADAECHPQGPPCIEGRKSGGGGSPAPRPPTPAPTIASQPLSLRPEACRPAAGGAVHTRGLDFACDIYIWAPLAGTCGVLLLSLVITLYCNHRNRRRVCKCPRPVV
modifications: Flankedccstreptag-L8 amino acid sequence
notes: Flankedccstreptag on CD8 stalk, transmembrane and short endodomain
In the case of B1, the “binding efficiency to the streptavidin-APC stain” value (K562 cells, compared to flankedccstreptag-d8-x2-GPI) is reported as “higher binding efficiency”, the “sorting of tag-expressing K562 cells from mixture with NT K562” value (streptavidin microbeads (Miltenyi)) is reported as “successful” and the “sorting of tag-expressing K562 cells from mixture with NT K562” value (streptavidin-dynabeads (Life technologies), eGFP) is reported as “successfully sorted”.
